# In ChEMBL document CHEMBL4888484, “Replenishing the malaria drug discovery pipeline: Screening and hit evaluation of the MMV Hit Generation Library 1 (HGL1) against asexual blood stage Plasmodium falciparum ,using a nano luciferase reporter read-out” (2022):
# Among all 150,000 compounds or so, about 540 (0.36%) showed an effect of 50% or more. Some of the results follow.
# Test system: Plasmodium falciparum
# Experiment: Primary screen in NF54 nanoGlo assay, in single point, at 2uM, 72h; a lower Z score goes with more inhibition
# Assay type: functional, Erythrocyte
# Conditions: timepoint 72 hour
SMILES,% Inhibition [%],Z score
O=C(c1cc(COc2ccc3ncccc3c2)on1)N1C[C@H]2CCC[C@@H]1C2,-6,1.1
O=C(N[C@@H]1C[C@H]1c1cccc(Cl)c1)C1CCCO1 (some centres undefined),-13,1.27
Cc1cc(NC(=O)N2CCC[C@H]2c2ccc3c(c2)OCCO3)no1,14,-1.75
O=C(C[C@@H]1NC(=O)N(Cc2ccccc2Cl)C1=O)N1CCOC(c2ccccc2)C1 (some centres undefined),5,-0.85
Cc1cc2n(n1)CCCN2CC(=O)N1CCN(c2cccc(Cl)c2)CC1,-9,1.46
CN1CC[C@H]2CC(=O)N(CC3CCC(F)(F)CC3)C[C@H](O)C(C)(C)COCCC[C@H]2C1,3,-0.44
CC(C)c1nc2c(c(OC3CCN(C(=O)NCc4cccc(F)c4)CC3)n1)CCOCC2,4,-0.57
CCC(=O)N1CCN(Cc2ccc(-c3cccc(F)c3)s2)CC1,0,0.05
Cc1ccc(Cl)cc1N1CCN(c2c(C(=O)N3CCCCC3)cnc3ccc(F)cc23)CC1,-8,1.01
CCc1nc2cc(NC(C)=O)cc(C(=O)N[C@H]3CCOC3)c2n1Cc1cccnc1,-8,1.19
CNC(=O)Cc1nc(-c2cccc(Cl)c2)cc(-c2c(C)noc2C)n1,-11,1.57
C[C@H]1CCCCN1CC(=O)NCCCc1ccccc1,-4,0.7
C#CCCC1(CCC(=O)N2CC3(CCC3)c3c(F)cccc32)N=N1,-14,1.72
COCCc1ccc(Oc2ncnc3c2CCCC3)cc1,-21,2.5
O=C(NCc1ccccc1)[C@@H]1COC2(CCN(C(=O)c3ccco3)CC2)N1C(=O)c1ccc(F)cc1,-6,0.81
O=C(NCCN1CCOCC1)c1nc(CCS(=O)(=O)c2ccc(Cl)cc2)no1,0,0.06
COc1cc(F)ccc1CN1CCC2(CCC(=O)N2)CC1,-4,0.7
Cc1nc(N)sc1CC(=O)NCCn1ccnc1C,-4,0.78
COCc1cc(C(=O)N2CCCC3(CCCCCC3)C2)no1,-13,2.07
CCC#CCN1CCC(CNC(=O)[C@@H]2CCCO2)CC1,-6,1.24
CC1CN(C(=O)C(C)(C)C)CC(C)N1C(=O)c1ccc(C(N)=O)[nH]1 (centres undefined),-11,1.36
N#Cc1c(NC(=O)CN(CCN2CCOCC2)CC(=O)Nc2sc3c(c2C#N)CCC3)sc2c1CCC2,-12,1.87
